Measurements as given in the supplement of paper PMC10126150.
Values marked as one replicate rest on one cluster of the flow cell; about a third of the high ones do not repeat.

Test system: ATP
Assay: switch fluorescence ratio, 500 uM ATP over buffer (Cy3 cluster intensity, sum of 5 cycles each) (fold (ratio)); higher = stronger signal-on switching upon ATP binding; sequences stand for … in TCGTCGGCAGCGTCAGATGTGTATAAGAGACAGTTTTTTTTTTTTTTTTTTTTTTTTT…TC
Conditions: aptamer strand: ATP DNA aptamer (quencher-CACCTGGGGGAGTATTGCGGAGGAAGG + anchor), 100 nM annealed; ATP concentration: 500 uM; one replicate
Procedure, shortened: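 Between each of five buffer/ATP cycles, the flow-cell was stripped with NaOH and re-annealed. Each cycle imaged Cy3-labelled switching-strand clusters, annealed to 100 nM quencher-labelled ATP aptamer on a modified Illumina MiSeq flow-cell, first in selection buffer and then after 15 min with 500 uM ATP at 22 °C. The fluorescence ratio is summed target-cycle over summed buffer-cycle Cy3 intensity per cluster, averaged per switch-domain sequence, with clusters outside 100-1000 RFU excluded.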
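Also: ATP exposure 15 min at 22 °C before imaging.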

Question: Which switch fluorescence ratio does the source give for CACGGAAAAC here?
Answer: 1.12

Question: Which switch fluorescence ratio does the source give for TGGCCCCACG here?
Answer: 1.06

Question: With TATGCTGATG as the sequence, how does the switch fluorescence ratio read?
Answer: 0.989

Question: How did the switch fluorescence ratio turn out when TCAGGGGTAG was run?
Answer: 1.01

Question: With TTCCTCATT as the sequence, how does the switch fluorescence ratio read?
Answer: 1.02

Question: Which switch fluorescence ratio does the source give for GTCAGCGACC here?
Answer: 1.01

Question: For ACCGACTAGT, which switch fluorescence ratio is on record?
Answer: 1.07

Question: With ACCGTTGTCT as the sequence, how does the switch fluorescence ratio read?
Answer: 0.985

Question: With TGATTCGTGT as the sequence, how does the switch fluorescence ratio read?
Answer: 0.992

Question: TTACCAAGGC was tested. Which switch fluorescence ratio did it give?
Answer: 1.13

Question: For GTTTCCGGGT, which switch fluorescence ratio is on record?
Answer: 1.07

Question: GGTTACACAC was tested. Which switch fluorescence ratio did it give?
Answer: 1.32

Question: Which switch fluorescence ratio does the source give for TAAGCCGTGT here?
Answer: 1.01

Question: AATTCGACTT was tested. Which switch fluorescence ratio did it give?
Answer: 1.04

Question: ATAAGTGCA was tested. Which switch fluorescence ratio did it give?
Answer: 0.978

Question: Which switch fluorescence ratio does the source give for TCTGGAGCGG here?
Answer: 1.15

Question: For GCGGCGTCGA, which switch fluorescence ratio is on record?
Answer: 1.03

Question: Which switch fluorescence ratio does the source give for TAACGGAAGG here?
Answer: 1.02

Question: Which switch fluorescence ratio does the source give for CTGTTAGTCG here?
Answer: 1.04

Question: With ACAACGTGAG as the sequence, how does the switch fluorescence ratio read?
Answer: 1.02

Question: Which switch fluorescence ratio does the source give for TTTTACTAAT here?
Answer: 1.01

Question: Which switch fluorescence ratio does the source give for AGTCTGTCTG here?
Answer: 0.989

Question: TAATGAAATG was tested. Which switch fluorescence ratio did it give?
Answer: 0.981

Question: How did the switch fluorescence ratio turn out when GTTTGGTCCC was run?
Answer: 0.964

Question: For TTTAGGATTA, which switch fluorescence ratio is on record?
Answer: 0.981

Question: With AGTTTGATCG as the sequence, how does the switch fluorescence ratio read?
Answer: 0.96

Question: With ATAAAAGGAC as the sequence, how does the switch fluorescence ratio read?
Answer: 1.03

Question: How did the switch fluorescence ratio turn out when TGGTACGAGG was run?
Answer: 0.985

Question: Which switch fluorescence ratio does the source give for CATGTCATTT here?
Answer: 0.965

Question: GTAGGTGTGG was tested. Which switch fluorescence ratio did it give?
Answer: 1.02

Question: With TTGGTGTGCT as the sequence, how does the switch fluorescence ratio read?
Answer: 0.952

Question: AAGACCTATG was tested. Which switch fluorescence ratio did it give?
Answer: 0.968

Question: TACCAAGGCC was tested. Which switch fluorescence ratio did it give?
Answer: 1

Question: TCTTCTTTAC was tested. Which switch fluorescence ratio did it give?
Answer: 1.11

Question: Which switch fluorescence ratio does the source give for ATAGATTATC here?
Answer: 1

Question: Which switch fluorescence ratio does the source give for CAGGGTACAA here?
Answer: 1.12

Question: CACTGCTCAC was tested. Which switch fluorescence ratio did it give?
Answer: 1.54

Question: For GATCGTTCGG, which switch fluorescence ratio is on record?
Answer: 0.914

Question: Which switch fluorescence ratio does the source give for TGCTCCGGGT here?
Answer: 1.02

Question: With GACACCATAT as the sequence, how does the switch fluorescence ratio read?
Answer: 1.07

Question: How did the switch fluorescence ratio turn out when TAACTCAT was run?
Answer: 1.04

Question: Which switch fluorescence ratio does the source give for TCCCTCTGAA here?
Answer: 1.13

Question: For AAGTTTGGAA, which switch fluorescence ratio is on record?
Answer: 1.05

Question: Which switch fluorescence ratio does the source give for ACGGTGTGAG here?
Answer: 0.994

Question: For CGGGCAAGTT, which switch fluorescence ratio is on record?
Answer: 0.972

Question: Which switch fluorescence ratio does the source give for GGAGGCACAT here?
Answer: 1.08

Question: AATAGGGTAC was tested. Which switch fluorescence ratio did it give?
Answer: 0.966

Question: For TAAAATGAAT, which switch fluorescence ratio is on record?
Answer: 1.04

Question: TGTTCGGGCG was tested. Which switch fluorescence ratio did it give?
Answer: 0.999

Question: With CCTGAAAACT as the sequence, how does the switch fluorescence ratio read?
Answer: 1.03

Question: How did the switch fluorescence ratio turn out when CCATACGCTC was run?
Answer: 2.49

Question: TACTCACATA was tested. Which switch fluorescence ratio did it give?
Answer: 1.36

Question: How did the switch fluorescence ratio turn out when AATGTGTAGG was run?
Answer: 0.999

Question: TAGCAATCTT was tested. Which switch fluorescence ratio did it give?
Answer: 1.89

Question: Which switch fluorescence ratio does the source give for CATAGTCCTT here?
Answer: 1

Question: How did the switch fluorescence ratio turn out when AATATTAGC was run?
Answer: 0.972

Question: For TAGAATTCAT, which switch fluorescence ratio is on record?
Answer: 1.01

Question: With AGTCACCGTG as the sequence, how does the switch fluorescence ratio read?
Answer: 1.04

Question: How did the switch fluorescence ratio turn out when GCGCGATCAG was run?
Answer: 1.1

Question: For ACAGGGTGCC, which switch fluorescence ratio is on record?
Answer: 1.02

Question: With GCAGCACGTG as the sequence, how does the switch fluorescence ratio read?
Answer: 1

Question: With AGCGGTTAG as the sequence, how does the switch fluorescence ratio read?
Answer: 1.06

Question: For GGCCATTTCT, which switch fluorescence ratio is on record?
Answer: 1.01

Question: With TTAACGTCCT as the sequence, how does the switch fluorescence ratio read?
Answer: 1.06

Question: Which switch fluorescence ratio does the source give for GACGCTGAAA here?
Answer: 1.39

Question: TACACATGCC was tested. Which switch fluorescence ratio did it give?
Answer: 1.05

Question: How did the switch fluorescence ratio turn out when GCTTTGAATC was run?
Answer: 1

Question: How did the switch fluorescence ratio turn out when TTAAAGGCT was run?
Answer: 1.06

Question: GTGTGTATTA was tested. Which switch fluorescence ratio did it give?
Answer: 1.01

Question: Which switch fluorescence ratio does the source give for CGAAGGTGGG here?
Answer: 1.02

Question: How did the switch fluorescence ratio turn out when ACGAATGGAC was run?
Answer: 1.11

Question: For CCGGAAGCG, which switch fluorescence ratio is on record?
Answer: 1.79

Question: For GCTTATCTTA, which switch fluorescence ratio is on record?
Answer: 1.01

Question: Which switch fluorescence ratio does the source give for ACCGGTATGC here?
Answer: 1.12

Question: With GCAAGACAGT as the sequence, how does the switch fluorescence ratio read?
Answer: 1.23

Question: How did the switch fluorescence ratio turn out when GCTCTGGGTC was run?
Answer: 1.02

Question: For GGAAAAGTCA, which switch fluorescence ratio is on record?
Answer: 1.01

Question: Which switch fluorescence ratio does the source give for CCTAGCCTAA here?
Answer: 1.11

Question: How did the switch fluorescence ratio turn out when AATAGCGCAT was run?
Answer: 1.02

Question: With CAAGTGCGCC as the sequence, how does the switch fluorescence ratio read?
Answer: 0.978

Question: For AAGTGACCTA, which switch fluorescence ratio is on record?
Answer: 1.09

Question: AACGTAACCG was tested. Which switch fluorescence ratio did it give?
Answer: 1.06

Question: Which switch fluorescence ratio does the source give for GCCATTGTCC here?
Answer: 1.02

Question: AGATCACGT was tested. Which switch fluorescence ratio did it give?
Answer: 1.01

Question: Which switch fluorescence ratio does the source give for CAGCGAGAAG here?
Answer: 0.981
